According to PubChem BioAssay AID1508642 (National Center for Advancing Translational Sciences (NCATS), 2021):
The whole screen tested about 43,000 compounds, of which about 200 (0.47%) were called active. Another 12% or so got no clear call; they are omitted. Calls follow the shape of the dose curve; as a rule, active = well fitted cell-killing curve with a large enough effect; inconclusive = small, poorly fitted or top-dose-only effect, or effect the other way; inactive = flat fitted curve, though single readings scatter. The list shows a part of the results.

Assay: Cell viability qHTS assay in S16 Pmp22-F2sN cells; also: nearly all actives have a fitted effect of over 65% in size
Settings: S16 Pmp22-F2sN Schwann cells viability, CellTiter-Glo, 24 h; series mostly up to 57.5 µM; activity change, negative = cytotoxicity: at the top concentration
Procedure, shortened: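 Viability was measured by CellTiter-Glo luminescence (15 min, room temperature). This followed 24 h at 37 °C of compound exposure (23 nL pin transfer) in S16 Pmp22-F2sN Schwann cells, 500-1,000 per well.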
% is scaled to controls: 0 for no effect and ±100 for the full control effect.

Row | Compound | activity change, negative = cytotoxicity
1 | CCOC(=O)c1ccc(NC(=O)Cn2cc(C(=O)c3ccc(CC)cc3)c(=O)c3ccc(C)nc32)cc1 | inactive: -15.9%
2 | O=C(Nc1ccc(Br)cc1F)N1CCC(CN2CCCC2)CC1 | inactive: -0.254%
3 | Cc1nn(C)c2c1c(C(F)(F)F)cc(=O)n2C(C)C(=O)NCc1ccc(Cl)cc1 (stereo not drawn) | inactive: 13%
4 | CC1=C(C(=O)OCc2ccccc2)C(c2cccc(Cl)c2Cl)CC(=O)N1 (stereo not drawn) | inactive: -0.922%
5 | Cc1cccc(CNC(=O)CSCc2cnn(-c3ccccc3)c2-n2cccc2)c1 | inactive: -1.36%
6 | CCOC(=O)c1ccc(NS(=O)(=O)c2cc(-c3onc(C)c3C)ccc2C)cc1 | inactive: -8.7%
7 | Cc1[nH]c2ccccc2c1C1N2CC3(C)CN1CC(C)(C2)C3=O (stereo not drawn) | inactive: -7.22%
8 | CC1=C(c2ccc(C)cc2)S(=O)(=O)NC1=NCc1cccc(F)c1 | inactive: 3.85%
9 | COc1cc(OC)c(C2Nc3c(C)cccc3-c3cc(C)nn32)cc1OC (stereo not drawn) | inactive: 3.03%
10 | COc1ccc(OC)c(S(=O)(=O)NCc2cccn2Cc2cccc(C)c2)c1 | inactive: -4.6%
11 | CC1=C(C(=O)Nc2cccnc2)C(c2ccc(Cl)cc2)n2nc(-c3ccccc3)nc2N1 (stereo not drawn) | inactive: 17.5%
12 | Cc1ccc(C)c(NC(=O)CSc2c3c(nc4ccc(Cl)cc24)CCCC3)c1 | inactive: 1.18%
13 | COc1cn(CC(=O)Nc2cccc(C)c2C)c(CN2CCCCC2)cc1=O | inactive: -2.31%
14 | Cn1c(=O)c2c(nc3n(-c4ccc(O)cc4)c(-c4ccc(Br)cc4)cn23)n(C)c1=O | inactive: -5.96%
15 | COc1ccc(C(=O)Nc2cccc(OCc3cc(=O)n4c5c(sc4n3)CCCC5)c2)cc1 | inactive: 11.6%
16 | O=C(O)c1ccc(-n2c(/C=C\c3ccc(O)cc3)nc3ccccc3c2=O)cc1 | inactive: -4.1%
17 | Cc1ccc(C2=Nc3ccccc3N(CC(=O)NCc3ccc(F)cc3)C(=O)C2)cc1C | inactive: -23.3%
18 | CCOC(=O)c1ccccc1NC(=O)c1sc2ncn(Cc3cccc(F)c3)c(=O)c2c1C | inactive: 13.3%
19 | CC(C)NC(=O)CCCN1C(=O)CCn2nc(-c3cccn3C)cc21 | inactive: 2.6%
20 | CCN1CCN(c2cc3c(cc2F)c(=O)c(S(=O)(=O)c2ccccc2)cn3C)CC1 | inactive: 5.39%
21 | COc1ccccc1NC(=O)CSc1nc2ccccc2c2nc(-c3ccccc3)nn12 | inactive: 11.6%
22 | COc1cccc(C(=O)c2cn(CC(=O)NCc3ccccc3)c3nc(C)ccc3c2=O)c1 | inactive: -10.7%
23 | COc1ccc(OCc2nc3c4c(-c5ccccc5)c(-c5ccccc5)oc4ncn3n2)cc1 | inactive: -14.1%
24 | COc1ccc(CNC(=O)CSc2nc3ccccc3nc2Cc2ccccc2OC)cc1 | inactive: 9.84%

Row | Compound | activity change, negative = cytotoxicity
25 | COC(=O)c1sc(NC(=O)/C=C/c2ccc(OC)c(OC)c2)c(C(=O)OC)c1C | inactive: 5.11%
26 | COc1ccccc1CNC(=O)c1ccc2c(c1)nc(C)n2-c1ccccc1OC | inactive: 0.14%
27 | Cc1nn2c(-c3ccco3)ccnc2c1-c1ccc(F)cc1 | inactive: 8.12%
28 | CCCCNc1nc2c(S(=O)(=O)c3ccc(C)c(C)c3)nnn2c2ccsc12 | inactive: -2.41%
29 | COc1cc(Nc2ncc3c(n2)CCN(Cc2cc(Br)cs2)C3)cc(OC)c1 | inactive: -5.98%
30 | COC(=O)c1ccccc1NC(=O)c1ccc2c(c1)CCN2S(C)(=O)=O | inactive: -5.03%
31 | Cc1cc(Nc2ccc(F)cc2)n2c(nc3ccccc32)c1C#N | inactive: 7.76%
32 | Cc1ccc(CSc2nc3c([nH]c4ccccc43)c(=O)n2C)cc1 | inactive: -1.66%
33 | Cc1c(-c2nc(-c3ccccc3)no2)nnn1-c1cccc(C(F)(F)F)c1 | inactive: 4.2%
34 | CCOc1ccc(NC(=O)Cn2c(C)cc3ccccc3c2=O)cc1 | inactive: 21.3%
35 | Cc1nc2ccccn2c(=O)c1NC(=O)c1ccc(C(F)(F)F)cc1 | inactive: -9.14%
36 | COc1ccc(NC(=O)c2cccn2-c2nnc(N3CCCCC3)s2)cc1Cl | inactive: -1.12%
37 | Cc1ccc(-c2nnc(C3CCN(S(=O)(=O)c4ccc(C)c(C)c4)CC3)o2)cc1 | inactive: 1.83%
38 | CCOc1ccccc1NC(=O)CN1C(=O)CC(c2ccc(OC)c(OC)c2)Sc2ccccc21 (stereo not drawn) | inactive: -14%
39 | CCCCOC(=O)c1ccc(NC(=O)CSc2nc3c(c(=O)[nH]2)CCCC3)cc1 | inactive: -24.3%
40 | Cn1c(-n2cccc2)c(-c2c(-c3ccccc3)[nH]c3c2c(=O)n(C)c(=O)n3C)c(=O)n(C)c1=O | inactive: 1.88%
41 | Cc1ccc(N2C(=O)CCSC23C(=O)N(Cc2ccccc2)c2ccccc23)cc1F (stereo not drawn) | inactive: 18.6%
42 | Cc1ccc(CNC(=O)Cn2c(=O)n(-c3ccc(Cl)cc3)c(=O)c3c(C)c(C)sc32)cc1 | inactive: 5%
43 | COc1ccc(OC)c(/C=C(/C#N)c2nc(-c3ccc(-c4ccccc4)cc3)cs2)c1 | inactive: 7.93%
44 | O=C(NCc1ccccc1)c1nn(-c2ccccc2)nc1CO | inactive: -5.18%
45 | O=C(NCc1ccc(F)cc1)c1cc2c(=O)n3ccccc3nc2s1 | inactive: 17.5%
46 | Cc1cc(C)cc(NS(=O)(=O)c2ccc3[nH]cc(C(=O)N(C)Cc4ccccc4)c(=O)c3c2)c1 | inactive: 1.99%
47 | Cc1ccccc1CN1C(=O)c2ccccc2Sc2ccc(C(=O)NC(C)c3ccccc3)cc21 (stereo not drawn) | inactive: 4.4%
48 | Cc1ccc(-n2c(=O)c3cccnc3n2CC(=O)Nc2cc(Cl)ccc2C)cc1 | inactive: 26.1%
